Laboratory results from patent US20260109763A1, “ANTI-PILRA ANTIBODIES, USES THEREOF, AND RELATED METHODS AND REAGENTS” (DENALI THERAPEUTICS INC., priority 2021, published 2026).

Key:
hPILRB = molecular target: T1, hPILRB (Homo sapiens, UniProt Q9UKJ0); assay: SPR (Biacore 8K) binding affinity to hPILRB; settings: Table 6
T1 construct: injections of serial 3-fold dilutions of recombinant ECD reagents
Description: (§1) The binding affinities of anti-PILRA antibodies to hPILRA, hPILRB, and cynoPILRA extracellular domain (ECD) were measured by SPR using a Biacore 8K instrument (Table 2). Antibodies were captured on Biacore™ Series S CM5 sensor chips immobilized with mouse anti-human Fab (human Fab capture kit from GE Healthcare) followed by injections of serial 3-fold dilutions of recombinant ECD reagents at a flow rate of 30 μL/min. Each sample was analyzed using a 3-minute association followed by a 10-minute dissociation. After each injection, the sensor chip was regenerated using a 5 0 mM glycine pH2.0 regeneration buffer. A 1:1 Languir model of simultaneous fitting of kon and koff was used for kinetics analysis.
(§2) The binding affinities of four reference anti-PILRA antibodies to hPILRA, hPILRB, and cynoPILRA were measured by SPR using a Biacore 8K instrument (described in Example 2). The EC50 binding values of the four reference antibodies were also measured in HEK293 cells expressing hPILRA G78.
(§3) Further, humanized antibody clones 36-39 were generated. The binding affinities of these clones for hPILRA G78, hPILRA R78, hPILRB, and cyno PILRA were measured by SPR (Table 8).

cynoPILRA = assay: SPR (Biacore 8K) binding affinity to cynoPILRA; parameters: species or system cynomolgus monkey; settings: Table 6
Description: as §1, §2, §3

T1 sequence (Q9UKJ0 with tags, fused parts or gaps): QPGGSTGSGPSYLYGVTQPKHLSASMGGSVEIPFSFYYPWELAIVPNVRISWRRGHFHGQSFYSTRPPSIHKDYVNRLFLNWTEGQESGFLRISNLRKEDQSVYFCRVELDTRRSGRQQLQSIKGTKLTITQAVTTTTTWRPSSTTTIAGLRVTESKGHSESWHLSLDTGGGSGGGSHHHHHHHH

Row | Molecule | hPILRB KD (hPILRB) | cynoPILRA KD (cynoPILRA)
1 | Reference Antibody #3: reference anti-PILRA antibody; heavy and light chain sequences among SEQ ID NOS:128-135 (antibody) heavy: QVTLKESGPGMLQPSQTLSLACSFSGFSLNSFGVAVGWIRQPSGKGLEWLAHIWWDDDKSYNPALKSRLTISKDTSKNQVFLKLANVDTADTATYYCTRIADYGNHFDYWGQGTALTVSSASTKGPSVFPLAPSSKSTSGGTAALGCLVKDYFPEPVTVSWNSGALTSGVHTFPAVLQSSGLYSLSSVVTVPSSSLGTQTYICNVNHKPSNTKVDKKV[left out - human IgG1 Fc with changes] light: DIQMNQSPSSLSASLGDTITITCHASQNSHVWLSWYQQKPGNIPKLLIYKASNLHTGVPSRFSGSGSGTGFTLTISGLQPEDIATYYCQQGQTYPFTFGSGTKLEIKRTVAAPSVFIFPPSDEQLKSGTASVVCLLNNFYPREAKVQWKVDNALQSGNSQESVTEQDSKDSTYSLSSTLTLSKADYEKHKVYACEVTHQGLSSPVTKSFNRGEC | Very weak | Very weak
2 | Reference Antibody #2: reference anti-PILRA antibody; heavy and light chain sequences among SEQ ID NOS:128-135 (antibody) heavy: QVILKESGPGILQSSQTLSLTCSFSGFSLSTFGMGVGWIRQPSGKGLESLAHIWWDDDKFYNPALKSRLTISKDTSKSQVFLKIANVDTADIATYYCTRIEDYGSYFAYWGQGTTLTVSSASTKGPSVFPLAPSSKSTSGGTAALGCLVKDYFPEPVTVSWNSGALTSGVHTFPAVLQSSGLYSLSSVVTVPSSSLGTQTYICNVNHKPSNTKVDKKV[left out - human IgG1 Fc with changes] light: DVQMNQSPSSLSASLGDPITITCHASQNIHVWLNWYQQRPGNIPRLLIYKASNLHTGVPSRFSGSGSGTGFTLTISSLQPEDIATYYCQQGQSYPYTFGGGTKLEIKRTVAAPSVFIFPPSDEQLKSGTASVVCLLNNFYPREAKVQWKVDNALQSGNSQESVTEQDSKDSTYSLSSTLTLSKADYEKHKVYACEVTHQGLSSPVTKSFNRGEC | No binding | No binding
